Experimental data from the antibiotic and cytotoxicity screens of Wong et al. (2023).
The other results are listed elsewhere or left out.

tested on: S. aureus RN4220; assay: growth inhibition call (relative growth <= 0.2); conditions: 50 µM

Growth inhibition call, inactive:
C=CCOC(=O)[C@H]1[C@@H]2C(=O)O[C@@H](c3ccccc3)[C@@H](c3ccccc3)N2[C@@H](c2ccc(OCCOC(=O)[C@H]3C[C@H]4C(=O)N5CCC[C@H]5C(=O)N4[C@H]3c3cccc(OCCO)c3)cc2)[C@]12C(=O)Nc1ccccc12
Cc1nn2cc(CN)nc2s1
C[C@H]1CN([C@@H](C)CO)C(=O)c2cc(NC(=O)Nc3ccc(F)cc3)ccc2O[C@@H]1CN(C)CC1CCCCC1
C[C@H](CO)N1C[C@H](C)[C@H](CN(C)Cc2ccc(Cl)c(Cl)c2)Oc2ccc(NC(=O)Cc3cn(C)c4ccccc34)cc2CC1=O
CCCOc1c(-c2ccc3ccccc3n2)cnc2ccccc12
NC(=O)C[C@H]1Sc2ccccc2NC1=O
CNC[C@@H]1Oc2ccc(NC(=O)Cn3cnnn3)cc2CC(=O)N([C@@H](C)CO)C[C@H]1C
Cc1cc(C(=O)Nc2cccc3c2O[C@H](CN(C)S(=O)(=O)c2cn(C)cn2)[C@H](C)CN([C@@H](C)CO)C3=O)n(C)n1
CCO[C@H]1OC(C(=O)N2CCN(C)CC2)=C[C@@H](c2coc3ccccc3c2=O)[C@@H]1CCCOC(=O)NCCCCCC(=O)NO
C[C@@H]1CCCCO[C@H](CN(C)Cc2ccc3c(c2)OCO3)[C@H](C)CN([C@H](C)CO)C(=O)c2cc(NC(=O)NC3CCCCC3)ccc2O1
Cc1ccc2nc(SCc3ccc4ccccc4c3)[nH]c2c1
C[C@@H]1CN([C@H](C)CO)C(=O)Cc2cc(NC(=O)Nc3ccc(C(F)(F)F)cc3)ccc2O[C@H]1CN(C)C(=O)NC1CCCCC1
CN1C(CCl)Nc2cc(Cl)c(S(N)(=O)=O)cc2S1(=O)=O (centres undefined)
Cc1noc(C)c1NC(=O)Nc1ccc2c(c1)C(=O)N([C@H](C)CO)C[C@H](C)[C@H](CN(C)C(=O)c1ccccc1)OCCCC[C@@H](C)O2
